These results are taken from PubChem BioAssay (NCI).

The structures appear in SMILES notation.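 1) Cells in 96-well plates. 2) Compound, 48 h, 5 concentrations. 3) Linear interpolation between surrounding doses. 4) Unreached endpoint = highest concentration. GI50: concentration for 50% inhibition of growth. TGI marks complete inhibition of growth.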 The source made the active and inactive calls. No stated cut-off is given here; in the data, active means GI50 below about 0.43 µM; inactive means the rest.

The assay deals with NCI-H322M lung. Briefly: NCI anticancer screen, dose series, 48 h.

Consider `C=C1C(=O)O[C@@H]2C[C@@H]1CC/C(C)=C/CC/C(C)=C/CC[C@@]2(C)O`, for which the GI50 was 12700 nM and the TGI was 32.5 µM.
`O=C(O)CCC(=O)c1ccc[nH]1` registered a TGI of more than 100 µM.
`FC(F)(F)c1ccc(N=C/C=C(/Nc2ccc(C(F)(F)F)cc2)c2ccc(Cl)cc2)cc1` showed a TGI of 33.4 µM.
As for `Cn1nc(N)c2cc([C@@H]3Nc4ccc5[nH]ncc5c4[C@H]4C5CCC(C5)[C@@H]34)ccc21` (stereo not given in full), the GI50 was 1280 nM and the TGI amounted to 46.5 µM.
In turn, `COC(=O)C1=C(C)NC2=C(C(=O)c3ccccc32)C1c1cn(-c2ccccc2)nc1-c1ccccc1` (stereo not given) returned a TGI of more than 100 µM.
`CCOC(=O)C1(C#N)C(c2ccccc2)CC(O)(c2ccc(OC)cc2)C(C(=O)c2ccc(OC)cc2)C1c1ccccc1` (stereo not given) showed a TGI of more than 100 µM.
`COc1cc(C#CC(=O)OC/C=C/c2ccc3c(c2)OCO3)cc(OC)c1OC`: the TGI is more than 100 µM.
With `Nc1c2c(nc3cc(F)c(F)cc13)CCC2`, the TGI is more than 100 µM.
In the case of `CCCCCCCCCCCCCC1=NC(C)(C)CN1C(C)C`, the GI50 is 1670 nM and the TGI was found to be 3.07 µM.
Regarding `CC(=O)c1ccc(NCc2cc(O)ccc2O)cc1`, the TGI worked out at 54.9 µM.
On the same count and under the same terms, to `NS(=O)(=O)c1ccc(N=Nc2nc3[nH]c(=O)[nH]c(=O)c3[nH]2)cc1` belongs more than 100 µM; to `O=C(O)CC1NC(/C(=C/c2ccccc2)NC(=O)c2ccccc2)OC1=O` (stereo not given), more than 100 µM.
On to `CCOC(=O)CCCn1c(SC)nc2[nH]cc(-c3ccccc3)c2c1=O`, for which the GI50 is more than 100000 nM and the TGI was more than 100 µM.
Compound `CCOC(=O)c1c(-c2ccc(OC)cc2)c(C#N)c(=S)n(C2OC(COC(C)=O)C(OC(C)=O)C(OC(C)=O)C2OC(C)=O)c1-c1ccccc1` (stereo not given) showed a TGI of more than 100 µM.
As for `COc1ccc(C(C)=O)cc1N1C(=O)C2C(C1=O)C1(c3ccccc3)C(=O)C2(c2ccccc2)C(c2ccc(C)cc2)=C1c1ccc(C)cc1` (stereo not given), the GI50 was more than 100000 nM and the TGI is more than 100 µM.
`CN(C(=O)C1=CCC2(CC1)OCCO2)c1ccccc1OS(=O)(=O)C(F)(F)F`: the TGI was more than 100 µM.
As for `Oc1cn(-c2ccc(Cl)cc2)nc1-c1nnc(-c2ccccc2)o1`, the GI50 is 165 nM and the TGI worked out at 3.58 µM.
For `CCOC(=O)C1=C(C)N(Cc2ccc(Cl)cc2Cl)C2(O)C=CC(=O)C3C(=O)N(c4ccccc4)C(=O)C132` (stereo not given), the TGI came to 15.3 µM.
`COc1ccc(N2C(=O)C(=O)N(c3ccccc3[N+](=O)[O-])C2=S)cc1`: the TGI is more than 100 µM.
Still for that read-out and setting: for `CNC(=O)N(C)N=NCCCl` the value was more than 100 µM; for `O=C1c2cccc(NCCCNCCO)c2C(=O)c2cccc(NCCCNCCO)c21`, 3.39 µM; for `N#Cc1c(-c2ccc(Cl)cc2)c2c([nH]c1=O)-c1ccccc1SC2`, more than 100 µM.
Consider `O=C(/C=C/c1ccccc1O)c1ccccc1O`, for which the TGI was more than 100 µM.
In the case of `O=[N+]([O-])C(=C(Cl)Cl)/C(Cl)=C(\Cl)Br`, the outcome was inactive.
